These results are taken from patent publication US20260009079A1, “BIOMARKERS OF PREGNANCY LOSS” (The University of Warwick, priority 2022, published 2026).

In the assay the test system is endometrial PLA2G2A/DIO2 ratios. The experiment in a line: SIMPLANT trial: endometrial PLA2G2A/DIO2 ratios by RT-qPCR in paired baseline and second endometrial biopsies. The conditions noted are these: women with a history of 3 or more miscarriages, sitagliptin 100 mg daily for 3 consecutive cycles, n=15, Wilcoxon Matched Pairs Signed Ranks test, P=0.0052. As for the experimental part:
DIO2 and PLA2G2A transcripts were measured by RT-qPCR in paired baseline and second endometrial biopsies obtained from participants in the SIMPLANT trial (EudraCT Number 2016-001120-54) in the placebo (n=16) and sitagliptin (n=15) groups. The PLA2G2A/DIO2 ratios (bottom panel) were calculated. The data were analyzed using Wilcoxon Matched Pairs Signed Ranks test with Sidak correction
RNA was extracted from endometrial biopsies which had been placed in RNA Later in the clinic (<1 min after collection), using RNeasy plus Universal mini kit (QIAGEN) according to the manufacturer's instructions. Reverse transcription was performed from 1 μg RNA using the Quantitect Reverse Transcription Kit (QIAGEN) and cDNA was diluted to 10 ng/μl equivalent before use in qPCR. Amplification was performed on a QuantStudio 5 (ThermoFisher) in 10 μl reactions using 2×Quantifast SYBR Green RT-PCR Kit (QIAGEN), with 300 nM each of forward and reverse primers. Primer sequences were as follows: DIO2 forward: 5′-ACT CGG TCA TTC TGC TCA A-3′, DIO2 reverse: 5′-TTC CAG ACG CAG CGC AGT-3′, PLA2G2A forward 5′ AAAGGAAGCCGCACTCAGTT-3′, PLA2G2A reverse: 5′-TTT CCA GGG AAG AGG GGA C-3′. Centile calculations were performed on dCt values using R v3.5 software.
Details regarding methods and governance of the SIMPLANT clinical trial can be found in Tewary et al., 2020. […]
In general terms: Quantitative PCR measures a nucleic acid by following its amplification.

Regarding `N[C@@H](CC(=O)N1CCn2c(nnc2C(F)(F)F)C1)Cc1cc(F)c(F)cc1F` [sitagliptin], the “endometrial PLA2G2A/DIO2 ratios before and after the trial” value is “significantly improved”.
